Experimental data published in the supplement of paper PMC4967469.
Lines with a small IC50 respond at low doses; a fit beyond the top or the lowest dose is shown as a bound at that dose. AUC is the area under the same curve over the 256-fold range up to the top dose, as a fraction: 1 means no effect, lower means more sensitive. For some of these results: An inferred top dose is not printed in the source and was worked back from the curve model. For some of these results: Where an entry number is given, a second screen of the drug exists; the two often differ.

Legend:
Assay in all cases: Viability of human cancer cell lines after 72 h of drug (GDSC screen)
SB-505124 = compound: Cc1cccc(-c2[nH]c(C(C)(C)C)nc2-c2ccc3c(c2)OCO3)n1 [SB-505124]; details: top dose 10 µM; top dose inferred
Description: (§1)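 Human cancer cell lines in 384-well plates, medium with 10% serum, drug for 72 h over a 256-fold dose range (nine 2-fold or five 4-fold steps up to the top dose). Adherent lines were fixed and stained with the nucleic acid dye Syto60, suspension lines read with resazurin; signal relative to control wells, capped at 0 and 100%. One two-parameter sigmoid per drug and line, fitted in a mixed model over all curves with the slope shared within a line.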

GSK690693 = compound: CCn1c(-c2nonc2N)nc2c(C#CC(C)(C)O)ncc(OC[C@H]3CCCNC3)c21 [GSK690693]; details: top dose 10.24 µM; top dose inferred
Description: as §1

PI-103 = compound: Oc1cccc(-c2nc(N3CCOCC3)c3oc4ncccc4c3n2)c1 [PI-103]; details: top dose 10.24 µM
Description: as §1

UNC0638 = compound: COc1cc2c(NC3CCN(C(C)C)CC3)nc(C3CCCCC3)nc2cc1OCCCN1CCCC1 [UNC0638]
Description: as §1

WZ3105 = compound: C=CC(=O)Nc1cccc(Nc2nc(NC3CCC(N(C)C)CC3)nc3c2ncn3C(C)C)c1 [WZ3105]; details: top dose inferred
Description: as §1

[1] = top dose 20 µM, screen: GDSC drug entry 1236, top dose inferred
[2] = top dose 40 µM, screen: GDSC drug entry 245

Cell Line	AUC (SB-505124)	IC50 (SB-505124)	AUC (GSK690693)	IC50 (GSK690693)	AUC (PI-103)	IC50 (PI-103)	AUC (UNC0638; [1])	IC50 (UNC0638; [1])	AUC (UNC0638; [2])	IC50 (UNC0638; [2])	AUC (WZ3105)	IC50 (WZ3105)
J82 (bladder, adherent)	0.987	> 10 µM	0.979	> 10.2 µM	0.839	6.93 µM	0.853	15.5 µM	0.866	35.5 µM	–	–
KOSC-2 (head and neck, adherent)	0.94	> 10 µM	0.984	> 10.2 µM	0.642	1.61 µM	0.703	4.8 µM	0.839	29 µM	–	–
KP-4 (pancreas, adherent)	0.986	> 10 µM	0.899	> 10.2 µM	0.539	0.816 µM	0.978	> 20 µM	0.904	> 40 µM	–	–
KYSE-180 (oesophagus, adherent)	0.979	> 10 µM	0.963	> 10.2 µM	0.801	4.74 µM	0.782	7.97 µM	0.693	8.48 µM	–	–
KYSE-270 (oesophagus, adherent)	0.981	> 10 µM	0.977	> 10.2 µM	–	–	0.809	8.6 µM	0.806	16.9 µM	–	–
LU-99A (large cell lung carcinoma, adherent)	0.986	> 10 µM	0.985	> 10.2 µM	0.924	> 10.2 µM	0.815	10.8 µM	0.779	16.1 µM	–	–
ML-1 (thyroid, adherent)	0.982	> 10 µM	0.984	> 10.2 µM	0.762	4.25 µM	0.982	> 20 µM	0.876	> 40 µM	–	–
NCI-H196 (small cell lung carcinoma, adherent)	0.987	> 10 µM	0.988	> 10.2 µM	0.838	7.38 µM	0.829	13.2 µM	0.717	10.7 µM	–	–
NCI-H1299 (large cell lung carcinoma, adherent)	0.98	> 10 µM	0.968	> 10.2 µM	0.825	8.08 µM	0.864	> 20 µM	0.794	23.4 µM	–	–
NCI-H1573 (lung adenocarcinoma, adherent)	0.99	> 10 µM	0.991	> 10.2 µM	0.971	> 10.2 µM	0.985	> 20 µM	0.969	> 40 µM	–	–
NCI-H1793 (lung adenocarcinoma, adherent)	0.98	> 10 µM	0.982	> 10.2 µM	0.539	0.853 µM	0.963	> 20 µM	0.872	> 40 µM	–	–
NCI-H1915 (large cell lung carcinoma, adherent)	0.985	> 10 µM	0.988	> 10.2 µM	0.836	6.97 µM	0.847	15.2 µM	0.74	12.4 µM	–	–
NCI-H2170 (lung squamous cell carcinoma, adherent)	0.949	> 10 µM	0.987	> 10.2 µM	0.913	> 10.2 µM	0.94	> 20 µM	0.89	> 40 µM	–	–
NCI-H2228 (lung adenocarcinoma, adherent)	0.963	> 10 µM	0.884	> 10.2 µM	0.807	8.92 µM	0.821	> 20 µM	0.931	> 40 µM	–	–
PCI-38 (head and neck, adherent)	0.932	> 10 µM	0.956	> 10.2 µM	0.857	8.37 µM	0.94	> 20 µM	0.753	13.4 µM	–	–
PL18 (pancreas, adherent)	0.987	> 10 µM	0.988	> 10.2 µM	0.697	2.27 µM	0.633	2.9 µM	0.889	> 40 µM	–	–
SNU-175 (large intestine, suspension)	–	–	0.982	> 10.2 µM	0.937	> 10.2 µM	–	–	0.782	15.6 µM	–	–
SNU-475 (liver, adherent)	–	–	0.957	> 10.2 µM	0.924	> 10.2 µM	–	–	0.669	6.93 µM	–	–

Cell Line	AUC (SB-505124)	IC50 (SB-505124)	AUC (GSK690693)	IC50 (GSK690693)	AUC (PI-103)	IC50 (PI-103)	AUC (UNC0638; [1])	IC50 (UNC0638; [1])	AUC (UNC0638; [2])	IC50 (UNC0638; [2])	AUC (WZ3105)	IC50 (WZ3105)
UACC-812 (breast, adherent)	–	–	0.957	> 10.2 µM	0.566	0.96 µM	–	–	0.883	> 40 µM	–	–
WIL2-NS (lymphoid neoplasm, suspension, top dose 1.28 µM)	–	–	–	–	–	–	–	–	–	–	0.652	0.193 µM
WM35 (melanoma, adherent, top dose 1.28 µM)	–	–	–	–	–	–	–	–	–	–	0.882	> 1.28 µM
WM278 (melanoma, adherent, top dose 1.28 µM)	–	–	–	–	–	–	–	–	–	–	0.824	0.894 µM
WM793B (melanoma, adherent, top dose 1.28 µM)	–	–	–	–	–	–	–	–	–	–	0.814	0.792 µM
WM1552C (melanoma, adherent, top dose 1.28 µM)	–	–	–	–	–	–	–	–	–	–	0.97	> 1.28 µM
WM-115 (melanoma, adherent, top dose 1.28 µM)	–	–	–	–	–	–	–	–	–	–	0.819	0.948 µM
WSU-DLCL2 (B-cell lymphoma, suspension, top dose 1.28 µM)	–	–	–	–	–	–	–	–	–	–	0.782	0.441 µM
WSU-NHL (lymphoid neoplasm, suspension, top dose 1.28 µM)	–	–	–	–	–	–	–	–	–	–	0.955	> 1.28 µM
YAPC (pancreas, adherent, top dose 1.28 µM)	–	–	–	–	–	–	–	–	–	–	0.866	> 1.28 µM
YH-13 (glioma, adherent, top dose 1.28 µM)	–	–	–	–	–	–	–	–	–	–	0.937	> 1.28 µM
YKG-1 (glioma, adherent, top dose 1.28 µM)	–	–	–	–	–	–	–	–	–	–	0.748	0.419 µM
YMB-1-E (breast, adherent)	–	–	0.605	1.38 µM	0.938	> 10.2 µM	–	–	0.764	19.9 µM	–	–
YMB-1-E (breast, adherent, top dose 1.28 µM)	–	–	–	–	–	–	–	–	–	–	0.774	0.696 µM
YT (lymphoid neoplasm, suspension, top dose 1.28 µM)	–	–	–	–	–	–	–	–	–	–	0.986	> 1.28 µM
huH-1 (liver, adherent, top dose 1.28 µM)	–	–	–	–	–	–	–	–	–	–	0.978	> 1.28 µM
no-10 (glioma, adherent, top dose 1.28 µM)	–	–	–	–	–	–	–	–	–	–	0.743	0.472 µM
no-11 (glioma, adherent, top dose 1.28 µM)	–	–	–	–	–	–	–	–	–	–	0.85	> 1.28 µM
